Experimental data from the supplement of paper PMC6089552.
About 300 (9.4%) of roughly 3,200 compounds showed activity. This is a selection; strong and weak results do not stand in their true shares.

System: A673/TR/shEF
Experiment: cell viability (LOESS-normalised, relative to median of negative controls) (log2 ratio); higher = more viable cells (less compound effect), active = hit call of the paper (over 3 MAD below the median)
Details: treatment time: 72 h
In short: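 For three days, A673/TR/shEF Ewing sarcoma cells in 384-well plates (1,500 per well) were treated with library compounds at two or more concentrations or with DMSO controls, after doxycycline had been added or withheld 24 h beforehand to induce EWS-FLI1 shRNA knockdown. Viability was read by CellTiter-Glo luminescence on an Envision reader. The data were LOESS-corrected per plate, divided by the median of negative controls and log2-transformed.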

[1] = 0.25 µM, library screen: screen2, EWS-FLI1 expression: high (no doxycycline)
[2] = 0.25 µM, library screen: screen2, EWS-FLI1 expression: low (doxycycline-induced shRNA knockdown)
[3] = 2.5 µM, library screen: screen2, EWS-FLI1 expression: high (no doxycycline)
[4] = 2.5 µM, library screen: screen2, EWS-FLI1 expression: low (doxycycline-induced shRNA knockdown)
[5] = 0.25 µM, library screen: screen1, EWS-FLI1 expression: high (no doxycycline)
[6] = 0.25 µM, library screen: screen1, EWS-FLI1 expression: low (doxycycline-induced shRNA knockdown)
[7] = 2.5 µM, library screen: screen1, EWS-FLI1 expression: high (no doxycycline)
[8] = 2.5 µM, library screen: screen1, EWS-FLI1 expression: low (doxycycline-induced shRNA knockdown)
[9] = 0.103 µM, library screen: screen3, EWS-FLI1 expression: high (no doxycycline)
[10] = 0.103 µM, library screen: screen3, EWS-FLI1 expression: low (doxycycline-induced shRNA knockdown)
[11] = 0.308 µM, library screen: screen3, EWS-FLI1 expression: high (no doxycycline)
[12] = 0.308 µM, library screen: screen3, EWS-FLI1 expression: low (doxycycline-induced shRNA knockdown)
[13] = 0.926 µM, library screen: screen3, EWS-FLI1 expression: high (no doxycycline)
[14] = 0.926 µM, library screen: screen3, EWS-FLI1 expression: low (doxycycline-induced shRNA knockdown)
[15] = 2.8 µM, library screen: screen3, EWS-FLI1 expression: high (no doxycycline)
[16] = 2.8 µM, library screen: screen3, EWS-FLI1 expression: low (doxycycline-induced shRNA knockdown)
[17] = 8.3 µM, library screen: screen3, EWS-FLI1 expression: high (no doxycycline)
[18] = 8.3 µM, library screen: screen3, EWS-FLI1 expression: low (doxycycline-induced shRNA knockdown)
[19] = 25 µM, library screen: screen3, EWS-FLI1 expression: high (no doxycycline)
[20] = 25 µM, library screen: screen3, EWS-FLI1 expression: low (doxycycline-induced shRNA knockdown)

Measured: cell viability (log2)

COc1ccc(C(=O)NCc2cccnc2)cc1C(=O)NCc1cccnc1
inactive: [1] 0.0996 | [2] -0.0166 | [3] 0.145 | [4] 0.053

Cc1ccc(S(=O)(=O)NC(=O)NN2CC3CCCC3C2)cc1 (stereo not drawn)
inactive: [5] 0.204 | [6] 0.195 | [7] 0.233 | [8] 0.201

COc1ccc(-c2cc(=O)c3c(O)cc(O)cc3o2)cc1
inactive: [5] 0.108 | [6] 0.0451 | [7] 0.189 | [8] 0.17

COc1cccc(CN2CCN(Cc3ccc(C(F)(F)F)cc3)CC2)c1OC
inactive: [5] 0.159 | [6] 0.109 | [7] 0.129 | [8] 0.101

CC(=O)N[C@@H](CC(=O)N[C@@H](CCC(=O)O)C(=O)O)C(=O)O
inactive: [5] 0.166 | [6] 0.108 | [7] 0.213 | [8] 0.109

O=c1c(O)c(-c2cc(O)c(O)c(O)c2)oc2cc(O)cc(O)c12
inactive: [5] 0.0195 | [6] 0.156 | [1] 0.118 | [2] 0.093 | [7] 0.0517 | [8] 0.0582 | [3] 0.111 | [4] 0.0599

O=C(O)c1cc2ccccc2[nH]1
inactive: [5] 0.123 | [6] 0.0929 | [7] 0.0969 | [8] 0.132

NCCS(=O)(=O)O
inactive: [9] 0.0698 | [10] 0.0172 | [1] 0.24 | [2] 0.0346 | [11] 0.0898 | [12] 0.0123 | [13] 0.0831 | [14] 0.00375 | [3] 0.16 | [4] 0.0945 | [15] -0.015 | [16] 0.0346 | [17] 0.00366 | [18] 0.0799 | [19] -0.00518 | [20] 0.0747

COc1cc2nc(N3CCN(C(=O)c4ccco4)CC3)nc(N)c2cc1OC
inactive: [5] 0.118 | [6] 0.0665 | [1] 0.286 | [2] 0.101 | [7] 0.14 | [8] 0.108 | [3] 0.255 | [4] 0.216

CCn1cc(C(=O)O)c(=O)c2cnc(N3CCNCC3)nc21
inactive: [5] 0.0531 | [6] 0.0384 | [7] 0.0127 | [8] 0.105

C/C1=C\CC(C)(C)/C=C\CC2(C)OC2CC1 (stereo not drawn)
inactive: [5] 0.0693 | [6] 0.00465 | [7] 0.118 | [8] 0.162

Cc1ccc(NC(=O)c2ccc(CN3CCN(C)CC3)cc2)cc1Nc1nc(-c2cccnc2)cs1
active: [19] -0.709

COc1nc(C)nc(Cl)c1NC1=NCCN1
inactive: [1] -0.000312 | [2] 0.057 | [3] 0.0861 | [4] 0.137

O=C(CCCN1CC=C(n2c(=O)[nH]c3ccccc32)CC1)c1ccc(F)cc1
inactive: [5] -0.004 | [6] 0.0501 | [1] 0.178 | [2] 0.0521 | [7] 0.0619 | [8] -2.38 | [3] 0.187 | [4] 0.0853

CC(/C=C/C=C(\C)c1cc(C(C)(C)C)cc(C(C)(C)C)c1)=C\C(=O)O
inactive: [1] 0.134 | [2] 0.0751 | [3] 0.0952 | [4] 0.134

Oc1c(I)cc(I)c2cccnc12
inactive: [5] 0.0428 | [6] -0.013 | [7] 0.0346 | [8] -0.603

C#CCN(C)Cc1ccccc1
active: [3] -1.76 | [4] -2.08
inactive: [5] 0.0858 | [6] 0.0954 | [1] 0.078 | [2] -0.0346 | [7] 0.175 | [8] 0.102

O=c1[nH]c2ccccc2c2ccccc12
inactive: [1] 0.226 | [2] 0.0587 | [3] 0.237 | [4] 0.0634

COc1cc(/C=C2\SC(NC(C)=O)=NC2=O)cc(Br)c1OC
inactive: [5] 0.0313 | [6] 0.0267 | [7] 0.0885 | [8] 0.0962

COc1ccc2cc(CCC(C)=O)ccc2c1
inactive: [5] 0.12 | [6] -0.0168 | [7] 0.127 | [8] 0.088

Cc1cccc(/C=C/c2ccccc2)n1
inactive: [1] 0.22 | [2] 0.057 | [3] 0.149 | [4] 0.0404

CCCCCC(C)N (stereo not drawn)
inactive: [5] 0.0593 | [6] 0.106 | [7] 0.159 | [8] 0.171

CCOc1ccc(C(=O)c2cc(O)c(OC)c(OC)c2O)cc1
inactive: [5] 0.0714 | [6] 0.0518 | [7] 0.162 | [8] 0.129

CCn1cc(C(=O)O)c(=O)c2ccc(C)nc21
inactive: [5] 0.0182 | [6] 0.124 | [1] 0.0982 | [2] 0.00565 | [7] 0.165 | [8] 0.105 | [3] 0.151 | [4] 0.0813

O=C(Cn1ccnc1[N+](=O)[O-])NCCO
inactive: [5] 0.106 | [6] 0.0865 | [7] 0.111 | [8] 0.106

CC(=O)OCC(COC(C)=O)OC(C)=O
inactive: [5] 0.0384 | [6] 0.171 | [7] 0.188 | [8] 0.227

NCCC(=O)NCCc1cnc[nH]1
inactive: [1] 0.22 | [2] 0.125 | [3] 0.121 | [4] 0.115

N=C(N)SCCc1cccc(CCSC(=N)N)c1
inactive: [1] 0.11 | [2] 0.0585 | [3] 0.178 | [4] 0.15

O=c1cc(-c2ccc(O)cc2)oc2cc(O)cc(O)c12
inactive: [5] 0.098 | [6] -0.000182 | [1] 0.276 | [2] 0.08 | [7] 0.178 | [8] 0.114 | [3] 0.112 | [4] 0.178

CCOc1cccc(C(=O)c2ccc(O)c(O)c2O)c1
inactive: [5] 0.0703 | [6] 0.005 | [7] 0.0783 | [8] 0.0694

NCCC[C@H](N)C(=O)O
inactive: [5] 0.0644 | [6] -0.0297 | [7] 0.00838 | [8] 0.0435

NC(=O)N1c2ccccc2C=Cc2ccccc21
inactive: [9] 0.0629 | [10] 0.0878 | [5] 0.153 | [6] -0.0111 | [1] 0.157 | [2] 0.0743 | [11] 0.058 | [12] -0.00705 | [13] 0.00665 | [14] 0.0796 | [7] 0.148 | [8] 0.193 | [3] 0.0205 | [4] 0.049 | [15] 0.15 | [16] 0.0836 | [17] 0.12 | [18] 0.00813 | [19] 0.151 | [20] 0.183

CN(C)CCN(Cc1cccs1)c1ccccn1
inactive: [5] 0.119 | [6] 0.101 | [1] 0.0797 | [2] 0.0374 | [7] 0.197 | [8] 0.294 | [3] 0.0957 | [4] 0.089

N=C1Sc2ccccc2C2=NCCCN12
inactive: [1] 0.11 | [2] 0.161 | [3] 0.138 | [4] 0.097

COc1ccc2c(c1)OCc1c-2oc2cc(OC)ccc12
inactive: [5] 0.134 | [6] 0.00532 | [7] 0.0869 | [8] 0.011

Nc1nc(=O)c2nc(CNc3ccc(C(=O)N[C@@H](CCC(=O)O)C(=O)O)cc3)cnc2[nH]1
inactive: [5] 0.0181 | [6] 0.031 | [7] 0.0902 | [8] 0.0775

CC(=O)N[C@@H](CC(C)C)C(=O)O
inactive: [5] 0.043 | [6] 0.0505 | [7] 0.162 | [8] 0.124

COc1c2ccoc2nc2c(OC)c(OCC(O)C(C)(C)O)ccc12 (stereo not drawn)
inactive: [5] 0.11 | [6] 0.126 | [7] 0.164 | [8] 0.152

O=C(C=Cc1ccccc1)c1ccccc1O
inactive: [5] 0.0713 | [6] 0.0789 | [7] 0.0334 | [8] 0.11

CC(C)NCC(O)COc1ccc(COCCOC(C)C)cc1 (stereo not drawn)
inactive: [9] 0.137 | [10] 0.0485 | [11] 0.11 | [12] 0.0659 | [13] 0.123 | [14] 0.0385 | [15] 0.115 | [16] 0.0519 | [17] 0.0669 | [18] 0.0189 | [19] 0.102 | [20] 0.122

CN1CC[C@H](c2c(O)cc(O)c3c(=O)cc(-c4ccccc4Cl)oc23)[C@H](O)C1
active: [9] -0.182 | [11] -0.451 | [12] -0.231 | [13] -1.4 | [14] -1.66 | [15] -3.54 | [16] -2.88 | [17] -4.29 | [18] -4.28 | [19] -4.33 | [20] -4.3

CC(N)=O
inactive: [1] 0.0101 | [2] 0.0952 | [3] 0.0948 | [4] 0.186

COc1ccc(-c2cc(=O)c3c(O)cc(O)cc3o2)cc1O
inactive: [5] -0.0193 | [6] -0.536 | [7] -0.0793 | [8] 0.0681

Nc1nc(Cl)nc2c1ncn2[C@@H]1O[C@H](CO)[C@@H](O)[C@@H]1F
active: [15] -0.287 | [17] -1.27 | [19] -3.63 | [20] -0.69

COc1cc2ccc(=O)oc2c(OC)c1OC
inactive: [5] 0.24 | [6] 0.119 | [7] 0.156 | [8] 0.115
